# This is one part of the list.
# Tested on: S. aureus RN4220
# Experiment: growth inhibition call (relative growth <= 0.2)
# Conditions: 50 µM
row,SMILES,growth inhibition call
1,COc1oc(C(=O)NC2CCCCC2)c(-c2ccc(Cl)cc2)c1S(=O)(=O)c1ccccc1Cl,inactive
2,Cc1ccc(S(=O)(=O)N(C)C[C@H]2Oc3ccc(NC(=O)c4ccncc4)cc3CC(=O)N([C@H](C)CO)C[C@H]2C)cc1,inactive
3,Cc1noc(C)c1S(=O)(=O)N(C)C[C@H]1Oc2ccc(NC(=O)Nc3ccccc3)cc2CC(=O)N([C@@H](C)CO)C[C@@H]1C,inactive
4,CNC(=O)C[C@H]1C[C@@H]2CN(S(=O)(=O)c3cccnc3)C[C@@H]2O1,inactive
5,CC1=NCCC2c3ccc(O)cc3NC12 (stereo not given),inactive
6,C[C@H]1CCCCO[C@H](CN(C)C(=O)c2ccncc2)[C@@H](C)CN([C@@H](C)CO)C(=O)c2cc(NS(C)(=O)=O)ccc2O1,inactive
7,CCn1c(N)c(C(N)=O)sc1=S,inactive
8,C[C@@H]1CCCCO[C@@H](CN(C)CC2CC2)[C@@H](C)CN([C@H](C)CO)C(=O)c2cc(NS(=O)(=O)c3cn(C)cn3)ccc2O1,inactive
9,C[C@H]1CCCCO[C@H](CN(C)C(=O)Nc2ccccc2)[C@@H](C)CN([C@@H](C)CO)C(=O)c2cc(NC(=O)Nc3ccccc3)ccc2O1,inactive
10,Cc1noc(C)c1NC(=O)N(C)C[C@H]1Oc2ccc(NC(=O)CCN3CCOCC3)cc2CC(=O)N([C@H](C)CO)C[C@@H]1C,inactive
11,COc1ccc(S(=O)(=O)N(C)C[C@@H]2Oc3ccc(NC(=O)NC(C)C)cc3C(=O)N([C@@H](C)CO)C[C@@H]2C)cc1,inactive
12,COc1ccc(C#Cc2cnc3c(c2)C(=O)N([C@H](C)CO)C[C@H](C)[C@H](CN(C)S(=O)(=O)c2cccc(F)c2)O3)cc1OC,inactive
13,C[C@H](CO)N1C[C@H](C)[C@@H](CN(C)C(=O)Cc2ccccc2)OCCCC[C@H](C)Oc2ccc(NC(=O)C3CCCCC3)cc2C1=O,inactive
14,Cc1ccc(S(=O)(=O)Nc2ccc3c(c2)CC(=O)N([C@@H](C)CO)C[C@@H](C)[C@@H](CN(C)S(=O)(=O)c2ccc(F)cc2)O3)cc1,inactive
15,C[C@H](CO)N1C[C@H](C)[C@@H](CN(C)Cc2ccc(Oc3ccccc3)cc2)Oc2ccc(NC(=O)Cc3ccccc3)cc2CC1=O,inactive
16,O=C(C[C@@H]1CC[C@@H]2[C@H](COC[C@H](O)CN2C(=O)Nc2cccc(Cl)c2)O1)NCCCN1CCOCC1,active
17,FC(F)(F)C(Cl)Br (stereo not given),inactive
18,COC(=O)[C@@H]1C[C@@H](C#N)N[C@@H]1c1ccccn1,inactive
19,O=c1cc(-c2ccccc2)oc2ccc(O)cc12,inactive
20,CC(C)(N)c1cc(C(=O)N[C@@H]2CCc3ccc(Oc4ccnc5c4CCC(=O)N5)cc3C2)cc(C(F)(F)F)c1,inactive

row,SMILES,growth inhibition call
1,C[C@@H]1CN([C@H](C)CO)C(=O)c2cc(NS(=O)(=O)c3ccc(Cl)cc3)ccc2O[C@@H]1CN(C)S(C)(=O)=O,inactive
2,Nc1nnnn1CC(=O)OCC(=O)Nc1ccccc1,inactive
3,CO[C@H]1CN(C)C(=O)c2cc(NC(=O)C3CC3)ccc2OC[C@@H](C)N(C(=O)Cc2ccccn2)C[C@@H]1C,inactive
4,CNc1cccc(CN)c1,inactive
5,Cc1cc2c(s1)Nc1ccccc1N=C2N1CCN(C)CC1,inactive
6,C[C@H](CO)N1C[C@H](C)[C@H](CN(C)C(=O)Nc2ccc3c(c2)OCO3)OCCCC[C@H](C)Oc2ccc(NC(=O)CCC(F)(F)F)cc2C1=O,inactive
7,Cc1noc(C)c1NC(=O)N(C)C[C@@H]1Oc2ccc(NC(=O)Cn3cnnn3)cc2CC(=O)N([C@@H](C)CO)C[C@H]1C,inactive
8,CN1CCN(C(=O)C[C@@H]2CC[C@@H]3[C@H](COC[C@@H](O)CN3C(=O)Nc3ccc4c(c3)OCO4)O2)CC1,inactive
9,C[C@H]1CCC2=C(CCC[C@@]2(C)C(=O)O)[C@@]1(C)CCc1ccoc1,inactive
10,NC(=O)c1ncn(C2OC(CO)C(O)C2O)n1 (stereo not given),inactive
11,COc1ccccc1C#Cc1ccc2c(c1)O[C@H](CN(C)Cc1cncnc1)[C@@H](C)CN([C@H](C)CO)S2(=O)=O,inactive
12,Cc1ccc(S(=O)(=O)N(C)C[C@@H]2OCCCC[C@H](C)Oc3ccc(NS(=O)(=O)c4ccc(F)cc4)cc3C(=O)N([C@H](C)CO)C[C@@H]2C)cc1,inactive
13,C[C@@H]1CN([C@@H](C)CO)C(=O)c2cc(NC(=O)C3CCCCC3)ccc2O[C@@H](C)CCCCO[C@@H]1CN(C)C(=O)Nc1cccc2ccccc12,inactive
14,COc1cc(N2CCC(N3CCN(C)CC3)CC2)ccc1Nc1ncc(Cl)c(Nc2ccccc2S(=O)(=O)C(C)C)n1,inactive
15,C[C@@H]1CN([C@H](C)CO)C(=O)c2cccc(NC(=O)c3cnccn3)c2O[C@H]1CN(C)S(=O)(=O)c1cn(C)cn1,inactive
16,O=C(C[C@H]1C[C@H]2c3cc(NC(=O)c4ccc5c(c4)OCO5)ccc3O[C@H]2[C@H](CO)O1)NCC(F)(F)F,inactive
17,COC(=O)[C@H](Cc1ccccc1)N1CC2=C[C@@H](C3CC3)n3c(=O)n(C)c(=O)n3[C@H]2[C@@H]1[C@@H](O)CCn1cc(COc2ccccc2/C=C(C)/C=C/C(=O)NO)nn1,inactive
18,C[C@H](CO)N1C[C@H](C)[C@H](CN(C)C(=O)C2CCCCC2)Oc2cc(Br)ccc2S1(=O)=O,inactive
19,C[C@H]1CN([C@@H](C)CO)C(=O)c2cc(/C=C/c3ccccc3)cnc2O[C@@H]1CN(C)C(=O)CN1CCOCC1,inactive
20,CC(C)NC(=O)N[C@@H]1C=C[C@H](CC(=O)NCCCN(C)C)O[C@@H]1CO,inactive
